# Source: the antibiotic and cytotoxicity screens of Wong et al. (2023)
# This is one part of the list.
# What was measured:
# [1] = tested on: HSkMC (human skeletal muscle cells); experiment: cytotoxicity call (relative viability < 0.9); details: 10 µM
# [2] = tested on: HepG2; experiment: cytotoxicity call (relative viability < 0.9); details: 10 µM
# [3] = tested on: S. aureus RN4220; experiment: growth inhibition call (relative growth <= 0.2); details: 50 µM
SMILES,cytotoxicity call [1],cytotoxicity call [2],growth inhibition call [3]
C[C@@H]1CCCCO[C@H](CN(C)Cc2ccc3c(c2)OCO3)[C@H](C)CN([C@H](C)CO)C(=O)c2cc(NC(=O)Nc3ccc4c(c3)OCO4)ccc2O1,inactive,active,inactive
O=C(NCc1nc2ccccc2[nH]1)C1=C[C@@H](c2ccc(Br)cc2)C[C@@H](OCc2ccc(CO)cc2)O1,inactive,active,inactive
O=C(C[C@@H]1C=C[C@@H](NS(=O)(=O)c2ccccc2F)[C@@H](CO)O1)NCCCN1CCOCC1,inactive,inactive,inactive
C[C@@H]1CN([C@H](C)CO)C(=O)c2cc(NS(=O)(=O)c3cn(C)cn3)ccc2O[C@H]1CN(C)Cc1ccc2c(c1)OCO2,inactive,inactive,inactive
C[C@H](CO)N1C[C@H](C)[C@@H](CN(C)C(=O)NC2CCCC2)Oc2cc(-c3cccnc3)ccc2S1(=O)=O,inactive,inactive,inactive
O=S(=O)(NCC[C@@H]1CC[C@@H](NS(=O)(=O)c2ccccc2Cl)[C@@H](CO)O1)c1ccc(Cl)cc1,inactive,inactive,inactive
Cc1ccc(S(=O)(=O)Nc2ccc3c(c2)C(=O)N([C@@H](C)CO)C[C@@H](C)[C@@H](CN(C)Cc2ccccc2)OCCCC[C@@H](C)O3)cc1,inactive,inactive,inactive
COCCOC(=O)N1C(=O)[C@@]2(c3cc(C#Cc4ccc(OC)cc4)ccc31)[C@H](C(=O)NC[C@H](O)c1ccccc1)[C@H]1C(=O)O[C@H](c3ccccc3)[C@H](c3ccccc3)N1[C@@H]2c1ccc(OCCO)cc1,inactive,inactive,inactive
COc1ccc(S(=O)(=O)N(C)C[C@@H]2Oc3c(NS(=O)(=O)c4ccc(C)cc4)cccc3C(=O)N([C@H](C)CO)C[C@@H]2C)cc1,inactive,inactive,inactive
Cc1nc(C(N)=O)c(N)n1CCO,inactive,inactive,inactive
CC(C)NC(=O)N[C@@H]1C=C[C@@H](CC(=O)NCCN2CCCC2)O[C@@H]1CO,inactive,inactive,inactive
Cc1ccc(-c2cnc3c(c2)C(=O)N([C@H](C)CO)C[C@@H](C)[C@@H](CN(C)C(=O)Cc2cccnc2)O3)cc1,inactive,inactive,inactive
C[C@@H]1CCCCO[C@@H](CN(C)C(=O)NC2CCCCC2)[C@H](C)CN([C@H](C)CO)C(=O)c2cc(NS(=O)(=O)c3cccs3)ccc2O1,inactive,inactive,inactive
C[C@@H]1CCCCO[C@@H](CN(C)C(=O)Nc2ccccc2)[C@@H](C)CN([C@H](C)CO)C(=O)c2cc(NC(=O)CCC(F)(F)F)ccc2O1,inactive,inactive,inactive
C[C@H](CO)N1C[C@H](C)[C@H](CN(C)C(=O)C2CCCCC2)OCCCC[C@H](C)Oc2ccc(NC(=O)CCC(F)(F)F)cc2C1=O,inactive,inactive,inactive
O=C(CCCCCNC(=O)OCc1ccc(CO[C@H]2C[C@@H](c3ccc(C(F)(F)F)cc3)C=C(C(=O)N3CCN(Cc4ccccc4)CC3)O2)cc1)NO,inactive,inactive,inactive
C[C@@H]1CCCCO[C@H](CN(C)Cc2ccc(C(=O)O)cc2)[C@H](C)CN([C@H](C)CO)C(=O)c2cc(NC(=O)NC3CCCCC3)ccc2O1,inactive,inactive,inactive
C[C@@H]1CN([C@@H](C)CO)C(=O)c2cccc(NS(=O)(=O)c3ccc(Cl)cc3)c2O[C@H]1CN(C)C(=O)Nc1ccc(C(F)(F)F)cc1,inactive,inactive,inactive
CC[C@H](C)[C@H](N)C1=N[C@H](C(=O)N[C@@H](CC(C)C)C(=O)N[C@@H]2CCC(=O)[O][Zn][O]C(=O)C[C@H]3NC(=O)[C@H](Cc4c[nH]cn4)NC(=O)[C@@H](Cc4ccccc4)NC(=O)[C@H]([C@@H](C)CC)NC(=O)[C@@H](CCCN)NC(=O)[C@H](CCCCNC(=O)[C@H](CC(N)=O)NC3=O)NC(=O)[C@H]([C@@H](C)CC)NC2=O)CS1,inactive,inactive,active
C[C@H](CO)N1C[C@H](C)[C@@H](CN(C)C(=O)C2CCCCC2)Oc2cc(C#Cc3ccncc3)ccc2S1(=O)=O,inactive,active,inactive
COc1ccc(S(=O)(=O)Nc2ccc3c(c2)CC(=O)N([C@H](C)CO)C[C@@H](C)[C@@H](CN(C)CC2CC2)O3)cc1,inactive,inactive,inactive
COc1ccc(NC(=O)N(C)C[C@@H]2OCCCC[C@H](C)Oc3ccc(NS(=O)(=O)c4ccccc4)cc3C(=O)N([C@@H](C)CO)C[C@@H]2C)cc1,inactive,inactive,inactive
